Read-outs that look alike come from different tables or passages of the source.
Key:
human VEGF C [1] = biological target: T1, human VEGF C (human, UniProt P49767 103-227, limits assumed); test: ELISA blocking: VEGFC-biotin captured on streptavidin plate; blocked receptor VEGFR3-Fc (0.2 ug/mL), detected with anti-human Fc-HRP, OD450
T1 construct: also called hVEGFC; hVEGF C
T1 sequence (looked up): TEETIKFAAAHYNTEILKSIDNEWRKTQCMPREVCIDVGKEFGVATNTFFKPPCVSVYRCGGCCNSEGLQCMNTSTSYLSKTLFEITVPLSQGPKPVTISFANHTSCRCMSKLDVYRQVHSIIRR
Procedure: (§1) SA (streptavidin) was diluted to 1 μg/mL, and 100 μL/well of SA was plated in a microplate at 4° C. overnight. The plate was washed 3 times with PBST and blocked with 3% BSA for 1.5 h. The plate was washed 3 times with PBST, 50 ng/ml of VEGFC-biotin (biotin-labeled human VEGF C) was added, and the plate was incubated for 1.5 h. 50 μL of antibody was incubated with VEGFR2-Fc (with a final concentration of 0.2 μg/mL, Beijing Sino Biological) or VEGFR3-Fc (with a final concentration of 0.2 μg/mL, Beijing Sino Biological) for 20 min in advance, and the mixture was added to the plate. The plate was washed 3 times with PBST, an anti-human FcHRP antibody (diluted in a ratio of 1:10000, BETHYL) was added, and then the plate was incubated for 30 min. The plate was washed 6 times with PBST, the color development was performed with TMB (SOLARBIO) for 5 min, and OD450 nm was read after stopping.

human VEGF C [2] = biological target: T1, human VEGF C; test: as above; remark: listed apart in the source
Procedure: as §1

IC50 (human VEGF C [1]): 0.0127 µg/mL
IC50 (human VEGF C [2]): 0.0246 µg/mL
B1: OPT-302 (VEGF-C-trap, VEGFR3-trap molecule) (Fc fusion)
chain: YSMTPPTLNITEESHVIDTGDSLSISCRGQHPLEWAWPGAQEAPATGDKDSEDTGVVRDCEGTDARPYCKVLLLHEVHAQDTGSYVCYYKYIKARIEGTTAASSYVFVRDFEQPFINKPDTLLVNRKDAMWVPCLVSIPGLNVTLRSQSSVLWPDGQEVVWDDRRGMLVSTPLLHDALYLQCETTWGDQDFLSNPFLVHITGNELYDIQLLPRKSLELLVGEKLVLNCTVWAEFNSGVTFDWDYPGKQAERGKWVPERRSQQTHTELSSILTIHNVSQHDLGSYVCKANNGIQRFRESTEVIVHE[human IgG1 Fc not given here]
notes: Positive control; also called OPT-032; positive control molecule
